This note sets out measurements from publication PMC12136788.

B1: chr1:77949188:77949289:-|CDS|ENSG00000162613|unk|FALSE|unique (ssRNA)
RNA: GGGAGUUCUACAGUCCGACGAUCUUCAAAGGUCAGGCAGUUCCUGCUCCGACUGGGGCUCCUCCAGGUGGUCAGCCAGAUUAUAGUGCAGCCUGGGCUGAGUAUUAUAGACAACAAGCAGCCUAUUAUGCCCAGACAAGUCCCCAACAGAGGAUUGAGCAUCA
B2: chr9:77717828:77717929:-|3pUTR|ENSG00000156052|unk|total|mutant (ssRNA)
RNA: GGGAGUUCUACAGUCCGACGAUCGUGCCUCAUAUCUGAAACAAAGGGAAAUAACACACCCAUUCAAAAGUAAAUAAAUCUCCCCGAAGUUUUUGUUUUUAACAUUUCCAUAUAAAGAGCUCUGUUGAAUGUCAUGAACCGACUCAACAGAGGAUUGAGCAUCA
B3: chr15:76949589:76949706:+|3pUTR|ENSG00000117906|msi1_unk|FALSE|overlapping (ssRNA)
RNA: GGGAGUUCUACAGUCCGACGAUCAUAAAUUUUUGUUUUUGUUCUAAGUAGAUUUAAUUUGGGAACUGACAGGACAAUGUUUUUAGGUUUAGCAUUUUGUUUAAAAACCUUUAAAGAAACCUUUAGAAGGACUUAGACCUCACACAACAGAGGAUUGAGCAUCA
B4: chr12:121847077:121847190:-|CDS|ENSG00000158104|unk|total|mutant (ssRNA)
RNA: GGGAGUUCUACAGUCCGACGAUCAAAAACCUGCAGUUCCACCGCUUCUGGUCCGUGGAUGACACGCAGGUGCACACGGAAUACCGCUCUCUGCGAUCCAUUGUGGUGGCCAACUAUGAAGAGUCCAUCAAGAUGCCCAUCAAUCAACAGAGGAUUGAGCAUCA
B5: ENSG00000112339:stop:overlap|stop_codon|ENSG00000112339|stop_codon|NA|stop_codon (ssRNA)
RNA: GGGAGUUCUACAGUCCGACGAUCUGAAGGACAAGAAUGAGGCAACAGUAUCUACAGGAAAGAUAGCAAAAGGCCCUUGCUGCUAGACCUUCAGCUUUUGCCUCAACACUGUGUCUUCGUUACCCACUGAAAAGCUGCAAGCGACAACAGAGGAUUGAGCAUCA
B6: ENSG00000101596:stop:overlap|stop_codon|ENSG00000101596|stop_codon|NA|stop_codon (ssRNA)
RNA: GGGAGUUCUACAGUCCGACGAUCUUAGUUGUAAUAAAAUAAAAGAUAAUGACAAAGAAGAUGGCUGCUUCUAUUUCAGGUUAUAGUUGAAGUCCUGCCUAAUCAACCUGUGAAGUUAGUACCUAAAAUUAAACCACCUACACCCAACAGAGGAUUGAGCAUCA
B7: chr19:51415897:51416167:-|CDS|ENSG00000142512|control|control|control (ssRNA)
RNA: GGGAGUUCUACAGUCCGACGAUCGCCACACUGAGCUGGGUCCUGCAGAACAGAGUCCUCUCCUCGUCCCAUCCCUGGGGCCCUAGACCCCUGGGGCUGGAGCUGCCCGGGGUGAAGGCUGGGGAUUCAGGGCGCUACACCUGCCAACAGAGGAUUGAGCAUCA
B8: chr4:108667468:108667493:+|3pUTR|ENSG00000198856|msi1_unk|total|mutant (ssRNA)
RNA: GGGAGUUCUACAGUCCGACGAUCGAAUUUUUUUUCCUGCUGGCCUAUUGCUAUACCAAUGAUGUUGAGUGGCAUUUUCUUUUCCGUUUUUCAUUAAAAUAUAUUCCAUAUCUACAACUAUAAUAUCAAAUAAAGUGAUUAUUUCAACAGAGGAUUGAGCAUCA
B9: chrX:119243754:119243940:+|3pUTR|ENSG00000101856|msi1|total|mutant (ssRNA)
RNA: GGGAGUUCUACAGUCCGACGAUCAGCUGCAAAAAAGCAUAUUUUCUGUGUUUCUGGACUGCACUGUUGUCCUUGCCCUCACACCGACACUCAGACACCCUCACAAACACAGCCGUCUACCGUCCGGAUUAAAACCGGAUCUGACAACAGAGGAUUGAGCAUCA
B10: chr8:28970260:28970371:+|CDS|ENSG00000147421|unk|total|mutant (ssRNA)
RNA: GGGAGUUCUACAGUCCGACGAUCUCUUCCUCUACAGCUACAGCUUCCACACAGACGCAGCAUUCGGGAAUGUCCCCGUCACCCCGCAACAGUUAUGAUACUUCCCCACAGCCUUGCACUACCAAUCAAAAUGGGAGGGAGAAUCAACAGAGGAUUGAGCAUCA
B11: ENSG00000107863:be:win_3101|CDS|ENSG00000107863|bound_else_gene|NA|bound_elsewhere_windowed (ssRNA)
RNA: GGGAGUUCUACAGUCCGACGAUCCGAUCCAGGAGAGCAGCAACCUAAACGAAGAGGACACUGGAGUCACUAACAGGGAUCUAAUUAGUCGAAGAAUAAAAGAAUACAACAAUCUGAUGAGCAAAGCAGAACAGUUGCCAAAAACAACAGAGGAUUGAGCAUCA
B12: chrX:119243474:119243703:+|3pUTR|ENSG00000101856|msi1|total|mutant (ssRNA)
RNA: GGGAGUUCUACAGUCCGACGAUCGGUAUUUCCCAAAACAGGUAAAAAUCUUAAAUGUGCACCAAGAGCAAAGGAUCAACUUUCCGUCAUGAUGUUCUGUAAAGACAACAAAUCCCUUUUUUUUUCUCAAUUGACUUAACUGCACAACAGAGGAUUGAGCAUCA
B13: chr17:47658542:47658643:+|CDS|ENSG00000108424|unk|FALSE|unique (ssRNA)
RNA: GGGAGUUCUACAGUCCGACGAUCGAUUCUGACUGCCAUAAUCCAGGGGAUGAGGAAAGAAGAGCCUAGUAAUAAUGUGAAGCUAGCUGCUACGAAUGCACUCCUGAACUCAUUGGAGUUCACCAAAGCAAACUUUGAUAAAGACAACAGAGGAUUGAGCAUCA
B14: ENSG00000070961:be:win_3651|CDS_3pUTR|ENSG00000070961|bound_else_gene|NA|bound_elsewhere_windowed (ssRNA)
RNA: GGGAGUUCUACAGUCCGACGAUCAACAUCACUCUGAUUGUAAGCUGAAUGUUAACACACUAGCUGCAUUGUAAAGAAACAAAUUGAAACUGGGUCUUUUCACAUAUUGUGAUGGACAAGCUAGUAUUCUUGUCUUUGGACUUCCAACAGAGGAUUGAGCAUCA

Some of the results follow.

In this assay the target is MSI1 full-length (mouse, UniProt Q61474 1-362). The experiment in a line: nsRBNS (natural sequence RNA bind-n-seq); RBNS binding buffer (assumed for nsRBNS): 25 mM Tris pH 7.5, 150 mM KCl, 3 mM MgCl2, 0.01% Triton X-100, 500 ug/ml BSA, 20 U/ml SUPERase-In, 4 C; UNK is unkempt and MSI1 is Musashi-1; names of the RNAs are library labels; protein concentration not given here; high values mean tight binding.
Chain of UniProt Q61474 (Q61474 whole entry): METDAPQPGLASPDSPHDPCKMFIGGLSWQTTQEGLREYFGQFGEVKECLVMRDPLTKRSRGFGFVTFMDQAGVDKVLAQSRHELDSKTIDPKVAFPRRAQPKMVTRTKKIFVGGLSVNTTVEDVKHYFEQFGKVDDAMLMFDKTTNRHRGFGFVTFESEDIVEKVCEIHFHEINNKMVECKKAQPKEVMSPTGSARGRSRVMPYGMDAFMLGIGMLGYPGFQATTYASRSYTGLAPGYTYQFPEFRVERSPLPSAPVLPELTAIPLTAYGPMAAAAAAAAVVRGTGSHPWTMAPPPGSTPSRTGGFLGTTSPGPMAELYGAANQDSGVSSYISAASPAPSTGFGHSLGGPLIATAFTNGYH
As to B1, the binding signal was found to be 0.918 enrichment R. Then B2, with 0.447 enrichment R. The molecule B3 returned a binding signal of 7.37 enrichment R. The value for B4 was 0.309 enrichment R; that for B5 was 0.369 enrichment R; that for B6 was 0.652 enrichment R. Then B7, with 0.51 enrichment R. For the molecule B8, the binding signal is 1.01 enrichment R. Then B9, with 0.3 enrichment R; and B10, with 0.528 enrichment R; and B11, with 0.93 enrichment R. Molecule B12 came in with a binding signal of 0.439 enrichment R. B13 showed a binding signal of 0.756 enrichment R. Then B14, with 0.241 enrichment R.
